# From the BET-seq Pho4 binding data (Le et al. 2018)
# Some of the results follow. These are noisy estimates, calculated here from bound and input reads.
# Biological target: T1, Pho4 (S. cerevisiae) (UniProt P07270)
# T1 sequence: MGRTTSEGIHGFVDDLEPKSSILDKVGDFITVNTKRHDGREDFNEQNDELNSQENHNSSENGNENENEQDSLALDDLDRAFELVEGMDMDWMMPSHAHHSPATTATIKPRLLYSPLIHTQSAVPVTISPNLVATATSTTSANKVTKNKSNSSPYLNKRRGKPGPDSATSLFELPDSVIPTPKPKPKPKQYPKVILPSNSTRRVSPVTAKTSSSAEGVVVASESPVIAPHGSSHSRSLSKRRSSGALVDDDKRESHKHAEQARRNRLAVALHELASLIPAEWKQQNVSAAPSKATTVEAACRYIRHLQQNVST
# Test: relative binding free energy (BET-seq); higher = weaker binding
# Conditions: reference: library average
row,Sequence,relative binding free energy [kcal/mol]
1,AGGTACACGTGGAGGA,0.12
2,GTCTGCACGTGTGAAG,0.08
3,AGAAACACGTGAGGGG,0.16
4,TCGAGCACGTGTAGCG,0.03
5,AGGTCCACGTGGGATG,0
6,ATGTGCACGTGAATGC,0.28
7,CGTATCACGTGGGTGT,-0.02
8,AGTGGCACGTGGTTCG,-0.23
9,TTGTGCACGTGAGCCG,0.2
10,CATGACACGTGATGGG,0.09
11,TTGTTCACGTGTTTCT,0.13
12,TAGGTCACGTGTCGGA,0.14
13,ATCGGCACGTGTAAGG,0.07
14,CGCGTCACGTGTGGTG,0.1
15,ATCTGCACGTGTTTAT,-0.07
16,GGCGACACGTGGCAGT,0.15
17,GGAAACACGTGAGTGC,0.4
18,TTACGCACGTGTGGAA,0.02
19,GGTGACACGTGGAAAG,0.27
20,GCGTGCACGTGGTTAG,-0.05
21,TGTAACACGTGGTGAG,-0.09
22,TGGTTCACGTGCGGCA,0.22
23,GTGGGCACGTGTTTTA,-0.06

row,Sequence,relative binding free energy [kcal/mol]
1,TTGTGCACGTGGCTAT,-0.08
2,CTGATCACGTGGAGGG,0.14
3,AGTGTCACGTGCAGGA,0.01
4,GTGGCCACGTGGAGTG,0.02
5,CGGGGCACGTGAGGCA,0.1
6,AAGTGCACGTGTCGTA,0.03
7,AGCTTCACGTGGTTTA,0.14
8,TTGTTCACGTGAAGAT,0.43
9,ATGATCACGTGGTAAG,0.09
10,ATCAGCACGTGGTAGT,-0.17
11,ATAGACACGTGTTGTA,0.02
12,GTGGACACGTGGTATT,-0.05
13,GTTGGCACGTGTTCTG,-0.07
14,GATGTCACGTGTCTGA,0.33
15,GTCGGCACGTGAAGTG,0.32
16,TGCATCACGTGGGATG,-0.11
17,CGGTGCACGTGATAGG,0
18,GTATACACGTGGGGTG,0.01
19,TTAGTCACGTGCTATG,-0.1
20,GGATGCACGTGTAATG,0.08
21,TGTTACACGTGGGATA,0.04
22,GGCAGCACGTGGGGTT,-0.15
23,TATTACACGTGGGAAT,-0.02

row,Sequence,relative binding free energy [kcal/mol]
1,TTTTTCACGTGACTAG,0.24
2,CGGTGCACGTGTAGGA,-0.07
3,GGCGTCACGTGTTATG,0.21
4,CTTGGCACGTGTAATA,-0.03
5,CGTGGCACGTGGGGAT,-0.24
6,TTAGACACGTGGTGGC,0.03
7,TTCTACACGTGTGATT,0.17
8,CTGTGCACGTGCGTGC,-0.03
9,CGGATCACGTGGTTTT,0.17
10,TAGGTCACGTGGAATT,0.21
11,GCGGTCACGTGGGGTC,0.05
12,AGAATCACGTGGTGAA,0.16
13,TATGACACGTGTTATT,0.03
14,GGGTTCACGTGGTGAG,0.31
15,TAACGCACGTGTTGTA,-0.05
16,ATTGACACGTGCGGTG,-0.19
17,GGCATCACGTGAGTGT,0.34
18,GGTGTCACGTGTCGAG,-0.01
19,TGTGGCACGTGCGGAT,-0.05
20,GTTTACACGTGGAGCG,0.12
21,CGTTTCACGTGATTAT,0.4
22,TATCTCACGTGCGTGG,0.16
23,TATTGCACGTGGTTCG,-0.1

row,Sequence,relative binding free energy [kcal/mol]
1,GCTTGCACGTGGGTAT,-0.06
2,GAGTTCACGTGACTGG,0.36
3,TGTGTCACGTGAAGTG,0.41
4,AGTGACACGTGGAATG,-0.09
5,TGATGCACGTGTTTCG,-0.05
6,CTCGTCACGTGTGAGG,0.13
7,GTTTTCACGTGTGACA,0.38
8,AAGGACACGTGGTGGA,-0.06
9,AAGATCACGTGGAGGG,0.21
10,ACTGGCACGTGGTTTG,-0.15
11,GGTGCCACGTGTCATG,-0.04
12,GAGTTCACGTGGGCGA,0.22
13,TAGTCCACGTGTGATG,0.07
14,GGTTGCACGTGGAGCA,0.04
15,TTTAACACGTGGATGA,-0.03
16,TATTACACGTGGGAGA,-0.03
17,GGTGACACGTGTGATA,0.07
18,GATGCCACGTGGTGGA,-0.13
19,AGAAGCACGTGGGTTG,-0.26
20,GTTAGCACGTGGAGCG,-0.1
21,TACCGCACGTGTGTGT,-0.08
22,TCTGTCACGTGTTATT,0.04
23,CGTCACACGTGATTGG,0.26

row,Sequence,relative binding free energy [kcal/mol]
1,GGTGCCACGTGCGGTG,-0.15
2,CTTGTCACGTGTAGCT,0.24
3,TGGGACACGTGGGCGC,-0.19
4,GGGCGCACGTGAGTCG,0.14
5,TTGTACACGTGTGACG,0.15
6,TGGCACACGTGTGGGT,0.08
7,AGATCCACGTGTAGTG,0.15
8,TGTGGCACGTGGTCTC,-0.12
9,TGTTGCACGTGTCGGT,0.08
10,TGGATCACGTGTGCAT,0.1
11,TACGGCACGTGGGGCT,-0.26
12,GCGGGCACGTGAATGT,0.19
13,GTATGCACGTGCAGTT,-0.03
14,GTCGGCACGTGCGGCG,-0.1
15,TGGGGCACGTGATGTC,0.06
16,TGGAACACGTGAGGGC,0.27
17,TTGTACACGTGACAGT,0.15
18,GTAGGCACGTGCGGAG,-0.14
19,TCTGACACGTGGCTGG,0.15
20,GGGGTCACGTGCTATA,0.05
21,GTAAGCACGTGAGGCG,0.05
22,AATGGCACGTGGCAGT,-0.23
23,ATAGTCACGTGTATAG,0.01
